Measured values: PubChem BioAssay AID588591 (National Center for Advancing Translational Sciences (NCATS), 2011)
“And” between values parts separate entries of the source, which are not always exact repeats. Identical values can stand only once. About 4,700 (1.2%) of roughly 390,000 compounds were called active. Inconclusive results, whose numbers are uncertain, are shown with a selection of clear calls. Calls come from the whole dose curve; as a rule, active = well fitted inhibition curve with a large enough effect; inconclusive = small, poorly fitted or top-dose-only effect, or another doubt; inactive = no such curve, though single readings can be large or run the other way. Where the call is inconclusive, the potency comes from a doubtful curve fit.

target: DNA polymerase eta (Homo sapiens) (UniProt Q9Y253); experiment: qHTS for Inhibitors of Polymerase Eta; details: recombinant Pol eta, fluorescent DNA replication assay; series mostly up to 114 µM
UniProt Q9Y253, sequence (Q9Y253 whole entry, looked up): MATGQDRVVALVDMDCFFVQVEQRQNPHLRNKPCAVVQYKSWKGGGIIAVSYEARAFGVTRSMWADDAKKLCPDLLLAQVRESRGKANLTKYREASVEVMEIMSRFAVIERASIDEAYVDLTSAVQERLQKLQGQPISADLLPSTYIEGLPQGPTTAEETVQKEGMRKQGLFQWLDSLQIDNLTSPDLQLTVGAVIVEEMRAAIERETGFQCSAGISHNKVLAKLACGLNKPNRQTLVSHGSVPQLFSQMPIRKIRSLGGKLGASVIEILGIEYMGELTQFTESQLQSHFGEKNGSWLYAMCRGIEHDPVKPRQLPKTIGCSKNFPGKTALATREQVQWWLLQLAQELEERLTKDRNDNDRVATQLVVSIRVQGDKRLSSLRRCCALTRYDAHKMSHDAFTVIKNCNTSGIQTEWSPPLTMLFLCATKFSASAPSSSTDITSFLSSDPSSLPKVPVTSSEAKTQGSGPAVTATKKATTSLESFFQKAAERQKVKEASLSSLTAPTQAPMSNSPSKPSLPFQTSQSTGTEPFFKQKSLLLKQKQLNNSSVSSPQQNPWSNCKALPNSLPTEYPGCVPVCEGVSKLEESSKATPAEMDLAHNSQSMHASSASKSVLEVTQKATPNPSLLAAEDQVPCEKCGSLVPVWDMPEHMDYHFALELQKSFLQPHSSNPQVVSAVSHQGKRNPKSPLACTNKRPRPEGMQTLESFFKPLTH
In short: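 Pol eta (10 nM) was preincubated with compounds for 15 min at room temperature, after which fluorescent replication substrate (50 nM final) was added to start the reaction. Fluorescence was read kinetically at 0 and 10 min.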
Potency is the fitted concentration of half-maximal effect; tags give direction and shape of the fitted curve.

SMILES | Potency
CCCc1cc(C(=O)Nc2c(C)nn(Cc3c(Cl)cccc3Cl)c2C)no1 | inactive
CCCCn1c(N)c(N(CC(C)C)C(=O)Cc2ccc3c(c2)OCCO3)c(=O)[nH]c1=O | inconclusive: 89.1 µM [inhibitor, partial curve, poor fit]
CC(=O)N1c2ccc(S(=O)(=O)NCC3CCC(C(=O)Nc4cc(C)ccc4C)CC3)cc2CC1C (stereo not drawn) | inactive
O=[N+]([O-])c1ccc(N2CCN(Cc3ccccc3)CC2)c(S(=O)(=O)N2CCOCC2)c1 | inconclusive: 79.4 µM [inhibitor, partial curve, poor fit]
COc1ccc(Cl)cc1NC(=O)C1(c2cccs2)CCOCC1 | inconclusive: 79.4 µM [inhibitor, partial curve, poor fit]
NC(CSC(c1ccccc1)(c1ccccc1)c1ccc(-c2ccccc2)cc1)C(=O)O (stereo not drawn) | active: 25.1 µM
Cc1onc(-c2ccccc2Cl)c1C(=O)NCc1ccccc1F | inconclusive: 35.5 µM [inhibitor, partial curve, poor fit]
O=C(c1ccc(Cl)c(S(=O)(=O)Nc2ccccc2C(=O)N2CCc3ccccc3C2)c1)N1CCc2ccccc2C1 | active: 39.8 µM
O=C(CSc1nc(=O)n2cc(Cl)ccc2n1)Nc1ccc2c(c1)OCO2 | active: 20 µM
COc1cccc(/C=N/NC(=O)c2cc3c(OC)cccc3[nH]2)c1OC | inconclusive: 14.1 µM [inhibitor, partial curve, poor fit]
O=C1NC2c3c(I)sc(I)c3C(=O)C2O1 (stereo not drawn) | inactive
Cc1ccc(OCCOc2cccc3ccc(C)nc23)c([N+](=O)[O-])c1 | inconclusive: 89.1 µM [inhibitor, single point]
N#CC1=C(N)OC2=C(C(=O)CC(c3ccco3)C2)C1c1ccc(OCc2c(F)cccc2Cl)cc1 (stereo not drawn) | inconclusive: 17.8 µM [inhibitor, partial curve]
Cc1ccc(CNC(=O)C(=O)NCC2OCCN2C(=O)c2ccc3c(c2)OCO3)cc1 (stereo not drawn) | inconclusive: 89.1 µM [inhibitor, single point]
CCC(=O)N1CCc2cc(Br)cc(S(=O)(=O)N3CCCC(C(=O)Nc4cccc(F)c4)C3)c21 (stereo not drawn) | inactive
CC(C(=O)Nc1ccccn1)N1C(=O)C2C3C=CC(C3)C2C1=O (stereo not drawn) | inconclusive: 39.8 µM [inhibitor, partial curve, poor fit]
Oc1ccc(N=Nc2ccc3ccccc3c2)cc1 | inconclusive: 89.1 µM [inhibitor, partial curve, poor fit]
CC(C)CCN1C(=O)c2ccc(C(=O)Nc3ccccn3)cc2C1=O | inconclusive: 89.1 µM [inhibitor, partial curve, poor fit]
Cc1ccc(C(=O)NNc2ncnc3c2cnn3C)cc1 | inactive
O=C(NNC(=O)c1ccccc1O)c1cccc(Br)c1 | inactive
COc1ccc(C(=O)NCCS(=O)(=O)NCc2ccco2)cc1 | inconclusive: 11.2 µM [inhibitor, partial curve, poor fit]

SMILES | Potency
CCCCCCCCNCCS(=O)(=O)NN1CCOCC1 | inactive
O=C(c1cc2ncccn2n1)N1CCc2c([nH]c3ccccc23)C1c1ccccc1F (stereo not drawn) | inconclusive: 25.1 µM [inhibitor, partial curve, poor fit]
C/C=C\C=C/C(=O)Nc1cccc(C2=NOC3(C2)C[C@H](C(N)=O)N(C(=O)Cc2ccc([N+](=O)[O-])cc2)C3)c1 (stereo partly drawn) | inactive
COc1ccc2c(c1OC)OCC2C (stereo not drawn) | inconclusive: 39.8 µM [inhibitor, partial curve, poor fit]
COc1cc(/C=N/Nc2nnc3c(n2)[nH]c2ccccc23)ccc1O | inconclusive: 20 µM [inhibitor, partial curve]
O=C(Nc1cccc(-c2cn3ccccc3n2)c1)c1cc2ccccc2oc1=O | inconclusive: 44.7 µM [inhibitor, partial curve]
CC(NC(=O)C1CC2CCCC(C1)C2=O)c1ccccc1 (stereo not drawn) | inconclusive: 17.8 µM [inhibitor, partial curve, poor fit]
Cc1cc(C)c2nc(-c3cccnc3)cc(C(=O)Nc3ccc(S(=O)(=O)Nc4onc(C)c4C)cc3)c2c1 | active: 44.7 µM
CCCN(C(=O)CCc1nc(-c2ccc(OC)cc2)no1)c1ccccc1F | inconclusive: 50.1 µM [inhibitor, full curve, poor fit]
CCN1C(=O)N[C@@H](c2cccs2)C(C(C)=O)=C1C | inactive
CCN(CC)C(=O)CSc1nc2ccc(NC(=O)CSc3nnc(COc4ccccc4C)n3C)cc2s1 | inconclusive: 11.2 µM [inhibitor, partial curve]
CCc1ccc(S(=O)(=O)/N=C2\C=C(Nc3cccc(C(=O)O)c3)C(=O)c3ccccc32)cc1 | active: 22.4 µM
COc1ccc(N2C=C3C(=O)C(C)(OC(=O)CCc4ccccc4)C(=O)C=C3C=C2c2ccc(C#N)cc2)cc1 (stereo not drawn) | inactive
COc1ccc(S(=O)(=O)N(CC(=O)NCc2ccco2)c2ccccc2OC)cc1 | inconclusive: 14.1 µM [inhibitor, partial curve]
COC(=O)c1ccc(Oc2ccc(C(C)(C)C)cc2)c([N+](=O)[O-])c1 | inconclusive: 56.2 µM [inhibitor, partial curve, poor fit]
CC(Sc1nc(N)c2c3c(sc2n1)CSC(C)(C)C3)C(=O)Nc1ccccc1 (stereo not drawn) | inconclusive: 39.8 µM [inhibitor, partial curve, poor fit]
CCCCn1c(SCC(=O)NCc2ccco2)nc2ccccc2c1=O | inconclusive: 39.8 µM [inhibitor, partial curve, poor fit]
CN(C)/C=C/C(=O)c1ccc(-c2ccc(Cl)cc2Cl)o1 | inactive
COc1nccnc1NS(=O)(=O)c1ccc(NC(=S)NC(=O)/C=C/c2ccc(F)cc2)cc1 | inconclusive: 56.2 µM [inhibitor, partial curve, poor fit]
N#C/C(=C\Nc1ccccc1SC(F)(F)F)c1nc(-c2ccccc2)cs1 | inconclusive: 89.1 µM [inhibitor, partial curve, poor fit]
COc1ccc(-c2nn(C)c3sc(C(=O)NCCN(C)C)cc23)cc1OC | inconclusive: 63.1 µM [inhibitor, partial curve, poor fit] and inconclusive: 35.5 µM [inhibitor, partial curve]

SMILES | Potency
COc1cc(CNc2ccc(O)cc2)cc(Br)c1OCc1ccccc1 | inconclusive: 79.4 µM [inhibitor, partial curve, poor fit]
O=C(NCCc1ccccc1)c1c[nH]c2ccc(S(=O)(=O)Nc3ccc(F)cc3F)cc2c1=O | inconclusive: 100 µM [inhibitor, single point]
Cc1ccc(N2CCN(C(=O)c3cc(C(=O)c4ccccc4C)c[nH]3)CC2)c(C)c1 | inconclusive: 89.1 µM [inhibitor, partial curve, poor fit]
CCOC(=O)c1c(Nc2ccc(C)c(C)c2)nnc(-c2ccccc2)c1-c1ccccc1 | inconclusive: 79.4 µM [inhibitor, partial curve, poor fit]
Cc1cc2nc(CO)[nH]c2cc1C | inactive
CN(C)C(=S)NC(=S)Nc1ccc2ccccc2c1 | inconclusive: 35.5 µM [inhibitor, partial curve, poor fit]
COc1ccc(NC(=O)Cn2nnc(C(=O)NCc3ccccc3)c2N)c(OC)c1 | inactive
O=C(/C=C/c1ccc(O)cc1)c1ccc(NC2=C(N3CCCCC3)C(=O)c3ccccc3C2=O)cc1 | inconclusive: 15.8 µM [inhibitor, full curve]
Cc1ccc2[nH]c3c(c2c1)CN(C(=O)CN1CC(C)OC(C)C1)CC3 (stereo not drawn) | inconclusive: 44.7 µM [inhibitor, partial curve, poor fit]
O=C(O)Cn1c(O)c(C2=c3ccccc3=NC2=O)sc1=O | inconclusive: 56.2 µM [inhibitor, partial curve]
O=c1c(O)c(-c2ccccc2)oc2ccccc12 | inconclusive: 89.1 µM [inhibitor, partial curve, poor fit]
CC(=O)Nc1ccc(N2CCCCC2)c(C(=O)Nc2cccc(C)c2)c1 | inactive
CC(C)C[C@@H]1NC(=O)[C@H](CO)NC(=O)c2cc([N+](=O)[O-])cc(I)c2OCC[C@@H](C(N)=O)NC1=O | inactive
CCCCCn1c(N)c(-c2nc3ccccc3o2)c2c([N+](=O)[O-])nn(CC)c(=O)c21 | inconclusive: 8.91 µM [inhibitor, partial curve, poor fit]
COc1ccc(N2CCN(C(=O)c3ccccc3F)CC2)c([N+](=O)[O-])c1 | inconclusive: 89.1 µM [inhibitor, partial curve]
Cc1ccc(C)c(N2CCN(C(=O)C3CCC(CNS(=O)(=O)c4cccs4)CC3)CC2)c1 (stereo not drawn) | inconclusive: 50.1 µM [inhibitor, partial curve, poor fit]
O=C(NCc1ccc2c(c1)OCO2)c1ccc(C2SCC(=O)N2Cc2ccco2)cc1 (stereo not drawn) | active: 79.4 µM
Cc1ccccc1CN1CCN(S(=O)(=O)c2ccc(Cl)s2)CC1 | inconclusive: 89.1 µM [inhibitor, partial curve, poor fit]
COc1ccc(Cl)cc1C(=O)OCC(=O)Nc1sccc1C(N)=O | inconclusive: 35.5 µM [inhibitor, single point]
O=C(COC(=O)/C=C/c1ccco1)Nc1cccc([N+](=O)[O-])c1 | inconclusive: 20 µM [inhibitor, single point]
Cc1ccc(C)c(NC(=O)Cn2ncc3c(C)n(Cc4ccc(F)cc4)c(C)c3c2=O)c1 | inconclusive: 100 µM [inhibitor, single point]
